Source: article PMC12136788
Numbering of substitutions follows the chain as printed. Some of the results follow.

T1: UNK ZnF1-3 (human, UniProt Q9C0B0 31-174)
T1 sequence: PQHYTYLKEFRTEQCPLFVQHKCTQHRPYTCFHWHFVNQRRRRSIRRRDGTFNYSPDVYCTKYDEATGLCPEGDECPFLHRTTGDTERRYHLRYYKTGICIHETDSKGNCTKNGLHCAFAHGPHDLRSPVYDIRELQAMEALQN

B1: chr7:135612270:135612271:-_ENSG00000105887_ENST00000393085|hu_mus|hu_hu_hu_mus_False|28_28 (ssRNA)
RNA: GGGAGUUCUACAGUCCGACGAUCGUUUUUUUCUGAGAUGUUAAAUAGUACUUCAGUGGAAAACAAAACUUAACCUUUUAUUAAUGCGUGUUGUACCAAAAGCAGACCAUGGUUUUACAUUUAUUCAAAAAUAUUAACAUUAAGCAACAGAGGAUUGAGCAUCA
B2: chr19:16212804:16212805:+_ENSG00000167460_ENST00000300933|hu_mus|hu_hu_hu_mus_False|8_18 (ssRNA)
RNA: GGGAGUUCUACAGUCCGACGAUCAACAAUUCUGGAGUGAAGGAAAGAUGUAACAUGGAACAGCAUUAAAGCUCAGUCAGAAGGCACAUGGGCAACAAUGAUCACCCCAGCAUUCUCCUACGUUGACUGCUUGAGAAAUCUGUUCAACAGAGGAUUGAGCAUCA
B3: chr7:44244176:44244177:+_ENSG00000106636_ENST00000223369|hu_mus|hu_hu_hu_mus_False|48_88 (ssRNA)
RNA: GGGAGUUCUACAGUCCGACGAUCACUGUCGCUCCGGACGUAGACAUGGCACAGAUACUCUUGUUCUUUGACAGAAGCUCUGCUGCCUUUCGAUGAGCGUUCCACAAUCAGUUGACUUGUAAAGGUCAUGAAUUCCUGCACACUCAACAGAGGAUUGAGCAUCA
B4: chr17:65944371:65944372:-_ENSMUSG00000024091_ENSMUST00000024897|mus_mus|motif|central (ssRNA)
RNA: GGGAGUUCUACAGUCCGACGAUCGGGCCGCACACAGUACCGGCGAGGUGCUGUAGUCUUCACUUUGAAACACACUUUUCGGUCCGAUGGAUUUUGCAAUUUAAGAUUUGUAGUGACUACAUCUGUGAAGGGGCCUUUGAAUUUCAACAGAGGAUUGAGCAUCA
B5: 90049570_90049690_1667_3pUTR_ENSG00000197147_ENST00000439853|human|control|control (ssRNA)
RNA: GGGAGUUCUACAGUCCGACGAUCAGGCGGAGGAUUUUUAAAUUCUCCUCUAGAAAGGCCAGUGCAGGAUGGUCUACGACCAGAGAUGAAUGGUACACACGAAGCUCCUUGAGGUUGACCAGCUGUGAGACUGCAGAGGGCAGCCAACAGAGGAUUGAGCAUCA
B6: chr3:10015032:10015033:+_ENSMUSG00000027533_ENSMUST00000029046|mus_mus|mus_mus_mus_hu_True|68_98 (ssRNA)
RNA: GGGAGUUCUACAGUCCGACGAUCGUUUUUACCAUCACACGUAAUGAUACAAUCUGGCUUGGCCAUUGCAGCCAUCUUUCGCAAAGCUAUUCCCACUCCUAGCUCCUUCAUGUAUUCAUCAAAGCCUUUGCUGUCCACCAGGCGCAACAGAGGAUUGAGCAUCA
B7: chr2:232320318:232320319:-_ENSG00000115053_ENST00000322723|hu_hu|FALSE|FALSE (ssRNA)
RNA: GGGAGUUCUACAGUCCGACGAUCACUGUUGAAGUCUACAAAACCAAACCCUUUGGAGGACCCAGUUUCCCGGUCAGUAACUAUCCUUGCCCGAACGGAGCCGUCAAAUGACUCCUUUAAUGUCUCUUCAGUGGUAUCCUCAGACAACAGAGGAUUGAGCAUCA
B8: 172315744_172336697_262_CDS_ENSG00000113719_ENST00000393784|human|control|control (ssRNA)
RNA: GGGAGUUCUACAGUCCGACGAUCUGGGUCAUCGACAUAGAGCUCGUUCACAACUUCUGUCGUUAUAAAUCCGGUGAGCUCCGAGAGGAAGAGGAAGAGGAUGAAGAGGCAGCAGCAGAUGGAGAUAAUGGCCCCGGUGUACGUCAACAGAGGAUUGAGCAUCA
B9: chr4:169848332:169848333:+_ENSG00000129116_ENST00000507735|hu_hu|motif|central (ssRNA)
RNA: GGGAGUUCUACAGUCCGACGAUCUUGCAUUUUCCUUCAUUCUCCUCCCUACUCCUUCCAAACCCCUGAUUCCUCCAAAUACGGUAUAUGCCUUGGUCAUUUGGGUGGUUUGGAUGCUUUCUGUGGAAUGAACUGUAAUAUAUUCAACAGAGGAUUGAGCAUCA
B10: 144935909_144936029_2875_3pUTR_ENSMUSG00000038970_ENSMUST00000041804|mouse|control|control (ssRNA)
RNA: GGGAGUUCUACAGUCCGACGAUCAAAUGGCUCAUUUUGUAAAUCCUGUCUCGAUUCUGGAAGACAACUCUCCACGCUACCCUGAGCAGUAAUAUCAUUCACAAGGAUGGGGUGUCUGUUGGUUAGACUCAAGGCCUCCUUGCUCAACAGAGGAUUGAGCAUCA
B11: chr1:60041781:60041782:+_ENSMUSG00000041040_ENSMUST00000036540|mus_hu|mus_mus_mus_hu_False|1_108 (ssRNA)
RNA: GGGAGUUCUACAGUCCGACGAUCAAGAGGAGUGAAUUAAAGUAAAUGCAGUAGUGGCAAAUUUUCUUUUAUUUUCCUUCACAAAAGAAAAUCUUUAUAACCCAGUCCUAGUCUUGGACAUAGUGAAAGCUAUAAAUGCCACUGCAACAGAGGAUUGAGCAUCA
B12: chr19:26705166:26705167:+_ENSMUSG00000024921_ENSMUST00000025862|mus_mus|FALSE|FALSE (ssRNA)
RNA: GGGAGUUCUACAGUCCGACGAUCUCCAGAUAUAGGGCUAGAGACGUGCUCCGGGGCUCCCAGAGGAGACGGAUGUGGUGACAUAUAACCUUGGCUGUGCUGGUCCAUGGGGCUCUGUGGAGGGCCCAUUCCUGGGUGUGGGGGCAACAGAGGAUUGAGCAUCA
B13: chr7:75932113:75932114:+_ENSG00000106211_ENST00000248553|hu_hu|hu_hu_hu_mus_False|78_98 (ssRNA)
RNA: GGGAGUUCUACAGUCCGACGAUCCUGCGACCACUCAUCCGGCAGCCGGGGCACCCCGAAGGCCUGGUCGAAGAGGCGGCUGUGUGCAGGGUACCAGUCCCGGAAUGGUUCCCAGCUCGGGCUCCGCAGCAGCGAGAAGGGCACCAACAGAGGAUUGAGCAUCA
B14: chr5:6374528:6374529:-_ENSG00000133398_ENST00000255764|hu_hu|FALSE|FALSE (ssRNA)
RNA: GGGAGUUCUACAGUCCGACGAUCAGCUAGAGCCCUCUCCAGGCACUCUUUGGUGUAGAGCUGGGGAUUUCGACCUUGAUCUAUAUAUUCAAAAACUUCUAACGGUACAGUAAUAUCAUGAAGCUGCUGUCUGCACUUGUCAAUCAACAGAGGAUUGAGCAUCA
B15: chr3:10015032:10015033:+_ENSMUSG00000027533_ENSMUST00000029046|mus_mus|mus_mus_mus_hu_True|48_68 (ssRNA)
RNA: B6 RNA with C39A, A42G, U87C, U89G, C93U
B16: chr5:128448638:128448639:+_ENSG00000066583_ENST00000173527|hu_mus|hu_hu_hu_mus_False|48_98 (ssRNA)
RNA: GGGAGUUCUACAGUCCGACGAUCGGCACUCGCCUUAAUUAGAUUCUGAAUUUCCUUGAACUUCGGGUGGUCUUUGUCAGCCACCAGCUGAAGCAGAACAGCCUCACUAGUGGUCACGAUGAUCCCAGUGCGGGCAAGACGCUCCAACAGAGGAUUGAGCAUCA
B17: 97373864_97376299_1737_CDS_ENSG00000059573_ENST00000371224|human|control|control (ssRNA)
RNA: GGGAGUUCUACAGUCCGACGAUCAUCUAUCAUUUUGUCUAGGCGGCAAAGAUCUUCAACUUCUUCUCUGGUAUUCACCAGUUGCACGGCCUCCUUGACUCCAUGGAUUGAGAGAGCCUCCUGGGUCAGGAGGUGGAGAAUCCGCAACAGAGGAUUGAGCAUCA
B18: chr2:115890611:115890612:-_ENSMUSG00000027210_ENSMUST00000102538|mus_hu|motif|central (ssRNA)
RNA: GGGAGUUCUACAGUCCGACGAUCCAAUAAACUCCUGGAUGUGUCGUAUAUUUAAUAUCCCAGUCCGGAUAAGAAAGUGAUCGGGGCUGAAGAUUCCUUUUUUUUUUUUCCAAACCAAAGAGACUUCUCCCAAUUCUCCAAUAUCAACAGAGGAUUGAGCAUCA
B19: chr4:76721835:76721836:+_ENSG00000138768_ENST00000264904|hu_mus|hu_hu_hu_mus_True|1_38 (ssRNA)
RNA: GGGAGUUCUACAGUCCGACGAUCGUUUGGCUGGGGUUUCUGAGACGCUCUGGAAUAUAACUCAUGUUUGCUAAUAAAUCCUAGUUUCUCUAUGAAAUCUCUUUGCCCAAUCCUCUUCUCUAUUAGUUGCUUUAGUUCUCUUUCCAACAGAGGAUUGAGCAUCA
B20: chr22:29966471:29966472:-_ENSG00000184117_ENST00000216121|hu_mus|FALSE|FALSE (ssRNA)
RNA: GGGAGUUCUACAGUCCGACGAUCAGUCUCCUUCUUGGACAGCAGAGUGGAGUGGGCGUCCUUCCGAGGAUCCACCUUGUGGACAAAGAGGGAACGGAACCAGCUUCCUUCACUGUCCUUGGAAUAGAAGCGCACAGCACCCGCCAACAGAGGAUUGAGCAUCA
B21: chr16:32231720:32231721:-_ENSMUSG00000035764_ENSMUST00000042732|mus_mus|FALSE|FALSE (ssRNA)
RNA: GGGAGUUCUACAGUCCGACGAUCUUGACAAAUUUAAUUCUCAAGGACCCCAAGAACCCCAGCGAGUCACUCUCUGUCCCUAAUUUUAUUAGAUUUAAAACAAAAUAUACAUACAGCAAUCAUGUAAAAAGUACAAAGAUUUUACAACAGAGGAUUGAGCAUCA
B22: chr12:39756943:39756944:-_ENSG00000139116_ENST00000544797|hu_mus|hu_hu_hu_mus_False|18_68 (ssRNA)
RNA: GGGAGUUCUACAGUCCGACGAUCGGUUUGGCUGUUACCCCCAAGGGAAUCCUGCAAGAGUCUUGUCAGCUUGGAAUCUCUGUAAGGGACAUGGGUGGCUCUCUUGCUCUUGUCCCCCAAGGCACUUAUUACAUUCCCAAGAGCCAACAGAGGAUUGAGCAUCA

What follows are binders tested against T1, UNK ZnF1-3 (assay: nsRBNS (natural sequence RNA bind-n-seq); RBNS binding buffer (assumed for nsRBNS): 25 mM Tris pH 7.5, 150 mM KCl, 3 mM MgCl2, 0.01% Triton X-100, 500 ug/ml BSA, 20 U/ml SUPERase-In, 4 C; UNK is unkempt and MSI1 is Musashi-1; names of the RNAs are library labels; protein concentration not given here; high values mean tight binding).

Binder | binding signal
B1 | 1.4 enrichment R
B2 | 1.15 enrichment R
B3 | 0.594 enrichment R
B4 | 0.824 enrichment R
B5 | 1.15 enrichment R
B6 | 0.775 enrichment R
B7 | 0.903 enrichment R
B8 | 2.53 enrichment R
B9 | 0.443 enrichment R
B10 | 0.911 enrichment R
B11 | 0.858 enrichment R
B12 | 1.27 enrichment R
B13 | 0.784 enrichment R
B14 | 1.12 enrichment R
B15 | 0.668 enrichment R
B16 | 0.717 enrichment R
B17 | 0.4 enrichment R
B18 | 0.911 enrichment R
B19 | 0.393 enrichment R
B20 | 1.36 enrichment R
B21 | 2.16 enrichment R
B22 | 0.605 enrichment R
